In all, about 310,000 compounds went through this assay and about 2,200 (0.71%) showed an effect of 50% or more. Effects have a minus sign here. The list shows a part of the results.
What follows are compounds tested against human ether-à-go-go-related gene (hERG) potassium channel (human, UniProt Q12809) (assay: primary screen, population patch clamp on CHO cells stably expressing hERG).
Sequence of human ether-à-go-go-related gene (hERG) potassium channel (Q12809 whole entry, looked up): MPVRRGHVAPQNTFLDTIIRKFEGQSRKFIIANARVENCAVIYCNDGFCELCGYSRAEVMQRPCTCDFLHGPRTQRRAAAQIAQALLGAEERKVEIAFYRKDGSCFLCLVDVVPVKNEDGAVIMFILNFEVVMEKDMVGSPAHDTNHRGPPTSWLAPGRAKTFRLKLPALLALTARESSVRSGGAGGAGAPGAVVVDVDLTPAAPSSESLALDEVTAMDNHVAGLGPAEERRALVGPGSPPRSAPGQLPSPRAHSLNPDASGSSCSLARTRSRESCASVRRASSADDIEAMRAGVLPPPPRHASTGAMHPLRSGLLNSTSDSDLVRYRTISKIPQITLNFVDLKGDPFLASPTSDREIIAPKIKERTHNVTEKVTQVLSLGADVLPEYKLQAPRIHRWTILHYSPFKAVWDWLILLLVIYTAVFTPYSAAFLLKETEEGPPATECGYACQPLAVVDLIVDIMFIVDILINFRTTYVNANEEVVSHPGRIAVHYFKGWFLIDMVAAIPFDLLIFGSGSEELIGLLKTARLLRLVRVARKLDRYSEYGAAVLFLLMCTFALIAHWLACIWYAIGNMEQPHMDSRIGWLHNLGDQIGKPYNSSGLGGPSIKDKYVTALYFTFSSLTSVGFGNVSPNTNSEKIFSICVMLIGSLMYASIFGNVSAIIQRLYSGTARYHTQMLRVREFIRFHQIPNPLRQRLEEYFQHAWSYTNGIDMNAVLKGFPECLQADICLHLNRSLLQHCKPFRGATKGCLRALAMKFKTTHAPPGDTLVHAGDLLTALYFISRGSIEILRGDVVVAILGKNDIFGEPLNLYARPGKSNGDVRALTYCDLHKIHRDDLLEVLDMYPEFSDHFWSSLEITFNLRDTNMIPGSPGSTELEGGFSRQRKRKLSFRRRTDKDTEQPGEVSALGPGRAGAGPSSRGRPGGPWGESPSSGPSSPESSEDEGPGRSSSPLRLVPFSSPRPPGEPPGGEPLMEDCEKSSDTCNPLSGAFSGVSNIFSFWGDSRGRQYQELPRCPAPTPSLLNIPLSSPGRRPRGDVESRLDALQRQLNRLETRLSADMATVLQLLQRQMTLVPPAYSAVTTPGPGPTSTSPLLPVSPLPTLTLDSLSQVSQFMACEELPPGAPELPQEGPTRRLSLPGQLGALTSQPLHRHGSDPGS

| SMILES | hERG current change (%, negative = inhibition) at 1uM |
| --- | --- |
| COc1ccc2c(C)cc(N3CCN(c4ccc(F)cc4)CC3)nc2c1 | -0.066% |
| Cc1c2c(nc3ccccc13)CCC(C)C2.Cl (stereo not shown) | -0.35% |
| Cc1ccc(/C=C2\SC(N3CCCCC3)=NC2=O)cc1 | 11.2% |
| COC(=O)CCCC1=CC2=CC(=O)C(C)(OC(=O)c3cccs3)C(=O)C2=CN1Cc1ccc2c(c1)OCO2 (stereo not shown) | 7.41% |
| O=C(CSc1nnc(-c2cccnc2)o1)Nc1ccccc1Br | 9.33% |
| C#Cc1ccc([C@@H]2C=C(C(=O)NCc3ccccc3)O[C@H](OCc3ccc(CO)cc3)C2)cc1 | 17.3% |
| COc1ccc(-c2csc3ncnc(NCCCO)c23)cc1 | 9.93% |
| O=C(Nc1ccccc1)C1C2CCC3C(CCC21)C3(Cl)Cl (stereo not shown) | 10.2% |
| O=C(c1cccnc1)N1N=C(C2CCCCC2)CC1(O)C(F)(F)F (stereo not shown) | 5.34% |
| Brc1ccccc1C1N=C(c2ccccc2)NO1 (stereo not shown) | 12.3% |
| CC(=O)N1CCOc2ccc(S(=O)(=O)NCc3ccc(Cl)cc3)cc21 | 11.7% |
| CCOC(=O)c1[nH]c(C)c(C(=O)OCc2ccccc2F)c1C | 15.8% |
| COc1ccc(NS(=O)(=O)c2cccc(C(=O)NNC(=O)c3cc(C)oc3C)c2)cc1 | 10.5% |
| O=C(CSc1nc2c(c(=O)n1-c1ccc(F)cc1)SCC2)NCc1ccco1 | -4.48% |
| CC(=O)c1ccc(NC(=O)[C@@H]2CCCN2C(=O)OC(C)(C)C)cc1 | 16.5% |
| O=S(=O)(NCC1(N2CCOCC2)CCCCC1)c1ccc(F)cc1 | 8.51% |
| Cn1c(N)c(C(=O)COC(=O)CC(NC(=O)c2ccccc2Cl)c2ccccc2)c(=O)n(C)c1=O (stereo not shown) | 4.4% |
| Cc1ccc(NC(=O)CSc2ccc(Br)cc2)cc1S(=O)(=O)N1CCOCC1 | -11% |
| COCCn1c(SCC(=O)Nc2ccc(F)cc2F)nc2c([nH]c3ccccc32)c1=O | 14.8% |
| Cl.OC(COCc1ccc2c(c1)OCO2)CN1CCCCC1 (stereo not shown) | 4.84% |
| Cc1cc(NC(=O)CCN2CCN(Cc3ccccc3)CC2)ccc1Br.Cl | 7.35% |
| CCN(CC)S(=O)(=O)c1cccc(C(=O)N/N=C(\C)c2cccs2)c1 | 4.46% |

| SMILES | hERG current change (%, negative = inhibition) at 1uM |
| --- | --- |
| COC(=O)c1ccc(C(=O)OC)c(NC(=S)N2CCN(C)CC2)c1 | 9.76% |
| O=C(CC1C(=O)NCCN1Cc1cccc(Oc2ccccc2)c1)NCc1cccnc1 (stereo not shown) | 8.42% |
| O=C1CC(N2CCN(C/C=C/c3ccccc3)CC2)C(=O)N1Cc1cccs1 (stereo not shown) | -50.8% |
| CCCCn1c(O)c(/C=C2\C=NN=C2c2ccccc2)sc1=S | 5.4% |
| CN(C)S(=O)(=O)c1ccc(NC(=O)CSc2nnnn2C)cc1 | 13.4% |
| Cc1cccc(OCC(=O)NC2CCCc3ccccc32)c1C (stereo not shown) | 14.5% |
| COC(=O)c1cc(OC)c(OC)cc1NC(=O)C(C)Sc1ccc(C)cc1 (stereo not shown) | 11.8% |
| CCn1nc(NC(=O)C2CCCO2)c2cc3cccc(C)c3nc21 (stereo not shown) | 15.1% |
| COc1cccc(NC(=O)C2CC(=O)N/C(=N/NC(=O)c3ccc(C)cc3)S2)c1 (stereo not shown) | 9.06% |
| CCc1c(C)nc2c(C#N)c(C)[nH]n2c1=O | 7.3% |
| O=C(c1ccccc1)N1CCN(c2ccc(Cl)cc2)CC1 | 9.15% |
| Cc1ccc2[nH]c(=O)c(CN(CC3CCCO3)S(=O)(=O)c3cccc4nsnc34)cc2c1 (stereo not shown) | 3.89% |
| Cc1cc(NCCO)c2ccccc2n1.Cl | 22.9% |
| Cc1cccc(C(=O)OC(C)C(=O)Nc2ccc(S(=O)(=O)N3CCCC3)cc2)c1O (stereo not shown) | 23.3% |
| CSCC[C@H](NC(=O)Nc1ccc(OC(F)(F)F)cc1)C(=O)O | 6.63% |
| COc1ccc(C)cc1NC(=O)Nc1ccc2c(c1)CCC2 | 6.25% |
| Cc1cccc(C)c1NC(=O)CSc1nnc([C@H](C)NC(=O)OC(C)(C)C)o1 | -7.86% |
| Cc1ccc(NC(=O)c2cccnc2)cc1S(=O)(=O)N1CCOCC1 | 7.09% |
| CCC(C(=O)O/N=C(\N)c1ccccc1)c1ccccc1 (stereo not shown) | 10.5% |
| CC(C)Nc1ccc(Cl)cc1[N+](=O)[O-] | 11.1% |
| O=C(N/N=C/c1ccc2c(c1)OCO2)c1ccc2ccccc2n1 | 10.1% |
| Cc1ccc(NC(=O)C2CCCN(c3nccc(C)n3)C2)c(C)c1 (stereo not shown) | 14.9% |

| SMILES | hERG current change (%, negative = inhibition) at 1uM |
| --- | --- |
| N#Cc1ccc(-n2nnc3ccccc3c2=O)c([N+](=O)[O-])c1 | 14.3% |
| S=C(NCCc1ccccc1)NCc1cccc(Cl)c1 | 10.1% |
| COc1cccc(NS(=O)(=O)NC(=O)c2cn(C)c3ccccc23)c1 | 9.87% |
| CC(=O)NN1C(=O)c2ccc(Oc3ccc4c(c3)C(=O)N(NC(C)=O)C4=O)cc2C1=O | 10.7% |
| CC1CC(C)CN(CC(=O)c2c[nH]c3ccccc23)C1 (stereo not shown) | 12.3% |
| CC(C)COC(=O)c1nnsc1NC(=O)Nc1ccccc1 | 14.2% |
| Cc1ccnc(NS(=O)(=O)c2ccc(Oc3ccccc3)cc2)c1 | 15.9% |
| Cn1c(=O)[nH]c(=O)c2c1nc(Br)n2Cc1ccccc1Cl | 3.38% |
| CN(Cc1cccc(-n2cccn2)c1)Cc1cn(C)nc1-c1ccccc1F | 16.7% |
| CCOC(=O)CCN(Cc1ccccc1)S(=O)(=O)c1csc(C(N)=O)c1 | 1.73% |
| CN(C)c1cc(-c2ccc(Br)cc2)oc(=O)c1Cl | 11.8% |
| COc1ccc(N2CCN(C(=O)c3oc4ccccc4c3C)CC2)cc1 | 6.94% |
| O=C(NCCO)c1nc2ccccc2s1 | 8.81% |
| Clc1cccc(-c2cc3nc4c(c(N5CCOCC5)n3n2)CCCC4)c1 | 5.26% |
| CNC(=O)c1nnc(Cc2ccc(F)cc2)o1 | 12% |
| Cc1nnc(SCc2nc3ccccc3c(=O)n2-c2ccccc2Cl)n1N | -13.7% |
| CC(=O)NN1C(=O)/C(=C\c2ccc(Br)o2)SC1=S | 6.46% |
| NC(=O)c1ccc(N2CCC(C(N)=O)CC2)c([N+](=O)[O-])c1 | 10.6% |
| CC(C)c1ccc(C(C(=O)NC(C)(C)C)N(C(=O)CNC(=O)c2ccco2)c2cccnc2)cc1 (stereo not shown) | 13.3% |
| O=C(COC(=O)c1ccccc1)NC1CCCC1 | 2.05% |
| COc1ccc(-c2noc(-c3ccoc3C)n2)cc1OC | 9.22% |
| Cc1ccc(NC(=O)CCN2CCN(CCO)CC2)cc1Br.Cl | 1.45% |

| SMILES | hERG current change (%, negative = inhibition) at 1uM |
| --- | --- |
| CC(=O)N1CCOc2ccc(S(=O)(=O)N3CCC(C)CC3)cc21 | 18.5% |
| COc1ccc(C2C(C#N)=C(N)N3C(=C2C#N)Sc2ccccc23)cc1 (stereo not shown) | 13.7% |
| CCOC(=O)C1=C(N)Oc2cc(O)ccc2C1c1cccc(Cl)c1 (stereo not shown) | 0.55% |
| COc1cccc(C(=O)NC2CC3CCC(C2)N3Cc2ccccc2)c1 (stereo not shown) | -2.53% |
| Cc1nc2ccccc2c(=O)n1NC(=O)c1cccc([N+](=O)[O-])c1 | 8.06% |
| COc1cccc(NC(=O)CC2S/C(=N\S(=O)(=O)c3ccccc3)N(c3ccccc3)C2=O)c1 (stereo not shown) | 10.5% |
| CCN(CC)C(=O)CSc1nnc(-c2ccccc2)n1N | 13.6% |
| COc1ccccc1Nc1nc(N)nc(CSC(=S)N2CCC(C)CC2)n1 | -1.81% |
| CCOc1ccccc1CN1CCC(n2nccc2NC(=O)CCCc2ccccc2)CC1 | -29.2% |
| CC1CC(C)CN(S(=O)(=O)c2ccc(NC(=O)CCN3C(=O)C4CC=CCC4C3=O)cc2)C1 (stereo not shown) | 7.34% |
| CC1=CC(C)(C)N(C(=O)CSc2nnc(C)s2)c2ccc(C)cc21 | 6.8% |
| Cn1c(=O)c2c(nc(CN3CCc4ccccc4C3)n2Cc2ccc(Cl)cc2)n(C)c1=O | 15.8% |
| CC(=O)Oc1ccc2cc(-c3nc4ccccc4n3C)c(=O)oc2c1 | 6.36% |
| c1ccc(-c2nc(NC3CCCC3)c3ccccc3n2)cc1 | 18.4% |
| NC(=O)NC(CC(=O)NNC(=O)c1ccccn1)c1ccc(Cl)cc1 (stereo not shown) | 6.88% |
| O=C(NN1C(=O)C2C3CCC(O3)C2C1=O)c1ccc(Cl)cc1 (stereo not shown) | 8.32% |
| O=C(Nc1cc(Cl)ccc1N1CCOCC1)c1ccc(N2CCCCC2)c([N+](=O)[O-])c1 | 2.3% |
| COc1ccccc1NC(=O)CCCCC(=O)Nc1ccccc1OC | 12.8% |
| O=c1[nH]c2ccccc2cc1CN(Cc1ccco1)S(=O)(=O)c1ccc(F)cc1 | 11.1% |
| COC(=O)C1=C(c2ccc(S(C)(=O)=O)cc2)C[C@@H]2CC[C@H]1N2C(=O)NC(C)C | -24% |
| COc1ccc(NC(=O)C2CCN(Cc3cnn(-c4ccccc4)c3-n3cccc3)CC2)cc1OC | 12.7% |
| Cc1oc(-c2ccccc2)nc1Cn1cccc1C1=NC(c2ccccc2)CO1 (stereo not shown) | 11.3% |
